In all, about 110,000 compounds were measured (“z-score”: median about -0.1, highest 2% from about 2 on). The list shows a part of the results.
target: Metabotropic glutamate receptor 8 (Rattus norvegicus) (UniProt P70579); experiment: mGluR8 Gi/Go-coupled signaling modulation – cell-based, rat, thallium flux, HTS, primary screen (AID 488969); conditions: HEK293 rat mGluR8, GIRK (G protein-gated inwardly rectifying potassium channel) thallium flux, FluoZin2; at 10 µM; stronger effect = higher value; submaximal glutamate (EC20) added with thallium
UniProt P70579, sequence (P70579 whole entry, looked up): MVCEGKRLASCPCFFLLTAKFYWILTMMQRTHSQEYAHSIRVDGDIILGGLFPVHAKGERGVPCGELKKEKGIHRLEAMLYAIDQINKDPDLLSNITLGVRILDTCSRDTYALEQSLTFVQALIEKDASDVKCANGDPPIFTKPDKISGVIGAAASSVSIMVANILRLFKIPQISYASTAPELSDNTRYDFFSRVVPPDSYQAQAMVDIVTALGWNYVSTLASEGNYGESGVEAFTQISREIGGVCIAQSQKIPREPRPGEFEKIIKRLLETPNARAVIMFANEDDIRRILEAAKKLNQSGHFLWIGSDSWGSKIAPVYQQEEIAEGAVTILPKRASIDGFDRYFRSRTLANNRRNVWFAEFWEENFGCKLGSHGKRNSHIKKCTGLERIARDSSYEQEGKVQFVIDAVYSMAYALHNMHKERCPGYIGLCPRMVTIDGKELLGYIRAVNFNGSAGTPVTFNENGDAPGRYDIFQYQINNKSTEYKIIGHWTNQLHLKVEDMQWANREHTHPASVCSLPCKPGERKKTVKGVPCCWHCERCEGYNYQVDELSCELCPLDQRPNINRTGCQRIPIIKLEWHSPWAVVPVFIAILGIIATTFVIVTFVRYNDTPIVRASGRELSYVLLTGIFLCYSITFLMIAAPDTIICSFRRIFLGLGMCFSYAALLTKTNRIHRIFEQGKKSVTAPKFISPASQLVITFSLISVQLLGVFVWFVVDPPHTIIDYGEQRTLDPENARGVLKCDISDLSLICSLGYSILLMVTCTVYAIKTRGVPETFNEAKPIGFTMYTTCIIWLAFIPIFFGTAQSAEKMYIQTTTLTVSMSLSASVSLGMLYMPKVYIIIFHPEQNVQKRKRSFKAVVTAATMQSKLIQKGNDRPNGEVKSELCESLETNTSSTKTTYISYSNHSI

| Compound | z-score |
| --- | --- |
| COc1cc(/C=C(\C#N)c2nc3c(s2)CCCC3)ccc1O | -0.204 |
| O=C1/C(=C/c2cccnc2)Oc2cc(OS(=O)(=O)c3ccccc3)ccc21 | -0.53 |
| Cc1ccc(OCC(=O)Nc2cccc(C)n2)c(C)c1 | -0.204 |
| CC1(C)OC(=O)C(=CNCC(=O)NCC(=O)O)C(=O)O1 | 0.786 |
| COc1ccc(/C=N/OCC(=O)Nc2cc(C)on2)cc1OC | -0.185 |
| Cn1c(=O)c2c(nc(CN3CCN(C(=O)c4ccco4)CC3)n2Cc2cccc(Cl)c2)n(C)c1=O | 0.227 |
| CCN(CC)CCn1c(O)c(N=O)c2ccccc21 | -1.15 |
| Cc1ccc(OCCN2C(=O)CSC2=O)cc1 | -0.582 |
| CCOC1=NS(=O)(=O)c2ccccc21 | 0.388 |
| CCCc1ccc(OCc2nc(-c3ccc(NC(=O)c4cccs4)cc3)no2)cc1 | -0.0525 |
| COc1ccc(-c2[nH]c(-c3ccc(C(=O)O)cc3)nc2-c2ccccc2)cc1 | -0.435 |
| CC(/C=C/c1cccs1)=C\C(=O)O | 0.0251 |
| COC(=O)c1cc(OC)c(OC)cc1NC(=O)Nc1ccc(OC)cc1 | -0.0386 |
| O=C(Nc1ccc(N2CCOCC2)c(Cl)c1)c1c(F)c(F)c(F)c(F)c1F | -0.114 |
| Cc1c(C(=O)OCC(=O)N2CC(=O)Nc3ccccc32)oc2ccc(Br)cc12 | 0.355 |
| CCc1nnc(NC(=O)CSc2ncnc3c2oc2ccccc23)s1 | 0.321 |
| CCc1nc(SCC(N)=O)c2c(=O)n(C)c(=O)n(C)c2n1 | -0.178 |
| Nc1nc(-c2cccc(Br)c2)cs1 | -0.135 |
| CCOC(=O)N1CCN(c2nc(C(F)(F)F)nc3c(C)cc(C)cc23)CC1 | -0.0403 |
| CCOC(=O)c1c(NC(=O)CN2CCN(c3ccc(Cl)cc3)CC2)sc(C)c1C | -0.132 |
| O=C(CN1C(=O)S/C(=C\C=C\c2ccccc2)C1=O)Nc1cccc(O)c1 | 0.0952 |
| O=C(O)c1ccc(CSc2nnnn2C2CCCCC2)cc1 | -0.14 |

| Compound | z-score |
| --- | --- |
| CC(=O)N1N=C(c2cccc([N+](=O)[O-])c2)OC1(C)CC(=O)Nc1ccccc1 (stereo not given) | 0.167 |
| CCc1ccccc1N(CC(=O)NCc1ccco1)C(=O)c1snc(C(N)=O)c1N | -0.637 |
| CC(NC(=O)Nc1ccccc1)c1ccccc1 (stereo not given) | 0.179 |
| O=C(CN1C(=O)COc2ccccc21)NCCCN1CCN(Cc2ccccc2)CC1 | -0.299 |
| COCC(C)n1c(C)cc(C(=O)COC(=O)c2ccc(N3CCCC3=O)cc2)c1C (stereo not given) | -0.164 |
| c1ccc(Cc2nnc3sc(-c4ccc5c(c4)OCO5)nn23)cc1 | 0.681 |
| COc1ccc(C(=O)N2CCC(C(=O)Nc3ccc(OC)c(OC)c3)CC2)cc1 | -0.606 |
| Cc1ccc(C)c(NC(=O)COc2cccc3c2CCN(Cc2ccccc2)C3=O)c1 | 0.164 |
| CC(=O)c1c(N2CCCCC2)nc(=O)n(-c2ccccc2)c1C | -0.104 |
| Cc1ccc(C(=O)Oc2ccccc2C(=O)N2CCOCC2)cc1 | -1.23 |
| Cc1cc2ccc(C)c(C)c2nc1SCC(=O)c1cccs1 | 0.0341 |
| COC(=O)CCC(=O)Nc1cccc(Br)c1 | 0.0606 |
| O=C(CSc1nc(-c2ccccc2)cc(=O)[nH]1)Nc1ccccn1 | -0.246 |
| Cc1ccc(C(=O)COC(=O)c2cccc(N3C(=O)c4c(C)nc5ccccc5c4C3=O)c2)cc1C | -0.0197 |
| COc1ccc(/C=c2\s/c(=C/C(=O)c3ccc(C)cc3)[nH]c2=O)c(OC)c1 | 0.0664 |
| COc1ccc(N2CCc3c(C)nc4c(OC)cc(OC)cc4c32)c(OC)c1 | 0.775 |
| Cc1ccccc1NC(=O)CSc1nc(N)c2c3c(sc2n1)CSC(C)(C)C3 | -0.0425 |
| COc1ccccc1OCCOC(=O)Nc1ccccc1 | -0.301 |
| N#CCCN1CCNCC1 | 0.274 |
| CCOc1cc(C(=S)N2CCOCC2)ccc1OS(=O)(=O)c1ccccc1[N+](=O)[O-] | -0.0558 |
| O=C(O)c1cccc(N2C(=O)c3cccnc3C2=O)c1 | -0.48 |
| O=C(CC1C(=O)NCCN1C(=O)Nc1ccccc1)Nc1cccc(C(F)(F)F)c1 (stereo not given) | -0.0748 |

| Compound | z-score |
| --- | --- |
| CCc1cccc2c(C#N)cn(CC(=O)NCc3ccco3)c12 | -0.475 |
| O=C(Nc1cccc(O)c1)C(Cc1ccccc1)N1C(=O)c2cccc3cccc(c23)C1=O (stereo not given) | -0.359 |
| O=C(COC(=O)CCNS(=O)(=O)c1cccc(C(F)(F)F)c1)NC(=O)NC1CCCCC1 | -0.0168 |
| CN1CCN(c2ccc(S(=O)(=O)Nc3ccccc3)cc2[N+](=O)[O-])CC1 | 0.0391 |
| CSc1ccccc1NC(=O)c1cc(C2CC2)on1 | 0.292 |
| CCCOc1cccc(/C=N/NC(=O)c2csc(C)c2C)c1 | 0.113 |
| O=C1CC(c2ccco2)CC(O)=C1C=Nc1cc(Cl)cc(Cl)c1 (stereo not given) | -0.467 |
| CN(C)c1nc(C(=O)NN)nc(N(C)C)n1 | 0.274 |
| COc1ccccc1-n1cc(-c2ccc(Cl)cc2)[nH]c1=O | 1.31 |
| COc1ccc(C)cc1S(=O)(=O)N(C)CC(=O)NCc1ccco1 | 0.0855 |
| CCC(C)OC(=O)C1=C(C)OC23OC(N)=C(C#N)C12C(=O)c1ccccc13 (stereo not given) | -1.09 |
| COc1ccc(C2c3c(oc4ccc(C)cc4c3=O)C(=O)N2c2cc(C)ccn2)cc1OC (stereo not given) | -0.0585 |
| C=CCn1c(CSCc2ccccc2)nnc1SCC(=O)N1CCN(c2ccccc2)CC1 | -0.469 |
| O=C(O)Cc1ccc(C(=O)c2ccc(Cl)cc2)s1 | -0.34 |
| CCCn1nnc(NC(=O)c2cc(Br)cc(Br)c2OC)n1 | 0.464 |
| COc1cccc(NC(=O)CN(c2ccc(C)cc2)S(=O)(=O)c2c(C)nn(C)c2C)c1 | -0.318 |
| Cn1c(COc2ccc(Cl)cc2)nnc1SCC(=O)NC1CCCCC1 | -0.0339 |
| CCOc1cc(Br)c(C(=O)O)cc1OC | -0.185 |
| CC1=C([N+](=O)[O-])C(c2ccccc2)C2=C(N1)c1ccccc1C2=O (stereo not given) | -0.15 |
| CCCCn1c(SCC(=O)Nc2cc(C(F)(F)F)ccc2Cl)nnc1C(CC)N(C)C (stereo not given) | -0.584 |
| Cn1c(=O)oc2cc(S(=O)(=O)N3CCCC(C(=O)NCCN4CCOCC4)C3)ccc21 (stereo not given) | -0.355 |
| CCc1ccccc1NC(=O)COc1ccc2c(=O)c(Oc3cc(C)ccc3C)coc2c1 | -0.0463 |

| Compound | z-score |
| --- | --- |
| Cc1ccc(NCCc2ccc(C)nc2)cc1 | -0.041 |
| C=CCn1c(CC(=O)Nc2cccc(OC)c2)nnc1SCC(=O)NC1CCCCC1 | -0.405 |
| Cc1ccc(C(=O)CC2(O)C(=O)N(CN3CCOCC3)c3ccccc32)cc1 (stereo not given) | 0.833 |
| COc1cc(C(=O)OC(C)CN2CCN(C)CC2)cc(OC)c1OC (stereo not given) | 0.257 |
| Cc1ccnc(NS(=O)(=O)c2ccc(NC(=O)c3ccc(C)o3)cc2)n1 | -0.0181 |
| COc1ccc(-c2cc(C)nc(SCc3cccc(C(=O)O)c3)n2)cc1 | -0.452 |
| CC(C)c1ccc2nc3sc(C(=O)N4CCc5ccccc5C4)c(N)c3cc2c1 | 0.414 |
| O=C(CCSCCc1ccccn1)Nc1c(F)c(F)c(F)c(F)c1F | -0.0702 |
| CCOc1ccc(N(CC(=O)O)S(=O)(=O)c2cccnc2)cc1 | -0.401 |
| Cc1nn(C)cc1C(=O)NNC(=S)Nc1ccccc1 | -0.277 |
| CC(O/N=C/c1ccccc1OC(F)F)C(=O)Nc1cccc(S(=O)(=O)N2CCOCC2)c1 (stereo not given) | 0.0638 |
| CCCCN(CCCC)CC(O)CN(c1cc([N+](=O)[O-])ccc1OC)S(=O)(=O)c1ccccc1 (stereo not given) | 0.91 |
| Clc1ccc(Oc2ncnc3oc(-c4ccccc4)cc23)cc1 | 0.177 |
| O=c1cnnc(SCCc2ccccc2)[nH]1 | -0.0811 |
| CCCn1nnc(NC(=O)c2ccc(Br)cc2)n1 | -0.128 |
| Cn1c(-c2ccc(F)cc2)cnc1NCc1ccc(F)cc1 | -0.0912 |
| CCC(C)NC(=O)C1CCN(S(=O)(=O)c2cccnc2)CC1 (stereo not given) | -0.122 |
| CN(Cc1ccccc1)Cc1nc2c(c(=O)n(C)c(=O)n2C)n1Cc1ccc(F)cc1 | -1.19 |
| CN1CCN(Cc2nc3c(c(=O)n(C)c(=O)n3C)n2CCCc2ccccc2)CC1 | -0.283 |
| O=C(Cc1c(F)cccc1Cl)N1CCN(C(=O)c2ccco2)CC1 | -0.28 |
| Cc1nc(-c2ccc(C(=O)O)cc2)cs1 | 1.35 |
| COc1cnc(-c2ccccc2)nc1Oc1cccc(C)c1C | -0.012 |

| Compound | z-score |
| --- | --- |
| COc1cc(N2C(=O)NC3CC2(C)Oc2ccccc23)cc(OC)c1OC (stereo not given) | 0.0792 |
| CCn1c(SCC(=O)NC2CCCc3ccccc32)nnc1-c1cccs1 (stereo not given) | -0.152 |
| Cc1ccc(C2=CC(c3ccc(N(C)C)cc3)n3nnnc3N2)cc1 (stereo not given) | -0.282 |
| Cc1ccc(C(=O)NC(Cc2c[nH]c3ccccc23)C(=O)O)o1 (stereo not given) | 0.57 |
| O=S(=O)(Cc1ccccc1)N1CCCCCC1 | 0.337 |
| COC(=O)COc1ccc(S(=O)(=O)N2CCc3ccccc3C2)cc1C | -0.71 |
| Cn1c(=O)c2c(nc(NCCNC(=O)c3ccco3)n2Cc2ccccc2Cl)n(C)c1=O | -0.224 |
| Cc1cccc2cc3c(NC(=O)CC(C)C)nn(C)c3nc12 | -0.363 |
| CC1(C)Cc2c(c(N3CCCCC3)[nH]c(=S)c2C#N)CS1 | -0.239 |
| Cn1cnnc1SCc1ccccc1Br | 0.198 |
| COCCCNC(NC(=O)c1ccc(Cl)cc1)C(Cl)(Cl)Cl (stereo not given) | -0.155 |
| CCN(Cc1ccccc1)C(c1ccc(Cl)cc1)c1nnnn1C(C)(C)C (stereo not given) | -0.18 |
| CCCn1nc(C(=O)NCCN2CCOCC2)c2ccccc2c1=O | 0.608 |
| O=C(c1ccco1)N1CCN(c2ncnc3scc(-c4cccs4)c23)CC1 | 0.729 |
| O=c1[nH]c(CN2CCN(C/C=C/c3ccccc3)CC2)nc2cc(Cl)ccc12 | -0.475 |
| Cc1[nH]c2ccccc2c1C(c1ccncc1)N1CCN(c2ccc(F)cc2)CC1 (stereo not given) | 0.133 |
| O=C(CSc1nnc(-c2ccccc2)n1-c1ccc(Cl)cc1)NNC(=S)Nc1ccccc1 | -0.142 |
| Cc1ccc(S(=O)(=O)N2CCCC(C(=O)O)C2)s1 (stereo not given) | -0.401 |
| COc1ccc(NC(=O)CC2C(=O)N(c3cccc(OC)c3)C(=O)N2CCC(C)C)cc1 (stereo not given) | -0.168 |
| O=C(O)CCC(=O)Nc1nc2nc(-c3ccccc3)cc(-c3ccccc3)n2n1 | -0.35 |
| O=C(OCC(=O)N1CCCc2ccccc21)c1cccnc1Cl | -0.516 |
| CCCCn1c(N)c(N(CCC(C)C)C(=O)CSc2nnc3ccccn23)c(=O)[nH]c1=O | -0.0171 |
